Source: PubChem BioAssay AID1347417 (National Center for Advancing Translational Sciences (NCATS), 2020)
The campaign covered roughly 120,000 compounds. About 5,300 (4.4%) were called active. Inconclusive means that the source gave no clear call. Such entries were picked first, then a sample of the others. Calls come from the whole dose curve; as a rule, active = well fitted inhibition curve with a large enough effect; inconclusive = small, poorly fitted or top-dose-only effect; inactive = no such curve, though single readings can be large or run the other way. A potency beside an inconclusive call is a rough fit, not a confirmed value.
Potency is the fitted concentration of half-maximal effect; tags give direction and shape of the fitted curve.

Test: qHTS Primary assay for Inhibitors of Plasmodium falciparum Dd2 growth in vitro; note: nearly all actives have a fitted effect of over 65% in size;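 for activity, negative = inhibition: plate controls were DMSO vehicle for no effect and reference drug for full effect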
Conditions: P. falciparum Dd2 growth, SYBR Green, 72 h; activity, negative = inhibition: at 28.9 µM (top of the series) unless noted; series mostly up to 28.9 µM
How it was run: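 Infected erythrocytes (Dd2, 0.3% parasitemia, 2.5% hematocrit final) are added to compound in RPMI-1640/Albumax II medium, grown 72 h at 37C in low oxygen, then lysed with saponin/Triton-X containing SYBR Green and read by fluorescence.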
For `Cc1cc(C(=O)N2CCC(=O)N(Cc3ccc(F)cc3)C(C(C)C)C2)n[nH]1` (centres undefined), the “activity, negative = inhibition” value was inactive: -25.7%.
For `COc1ccc(S(=O)(=O)N(Cc2nc(-c3ccccc3)no2)C2CCCCC2)cc1`, the Potency was inconclusive: 17.8 µM [inhibitor, single point].
With `CN1CC(=O)N(C2CCCC2)Cc2c1ncnc2N1CCOCC1` the “activity, negative = inhibition” value was inactive: 5.35% [at 44.1 µM].
With `COCCOC1CCOC2(CCN(C(=O)CCc3nc4ccccc4s3)CC2)C1` (centres undefined) the Potency was inconclusive: 6.31 µM [inhibitor, partial curve, poor fit].
In the case of `COc1ccc(CCN2CCC(CN(C)C(=O)c3ccccc3SC)CC2)cc1`, the Potency is reported as inconclusive: 12.6 µM [inhibitor, partial curve, poor fit].
For `N#Cc1cccc(NC(=O)NC[C@H]2C[C@@H]3CCN2C[C@@H]3CN2CCN(c3ccccc3)CC2)c1`, the Potency was inconclusive: 7.08 µM [inhibitor, partial curve, poor fit].
With `Cc1cc(C(F)(F)F)nn1CC(=O)N1[C@H]2CC[C@@H]1c1cnc(-c3ccc(F)cc3)nc1C2` the Potency was inconclusive: 6.31 µM [inhibitor, partial curve, poor fit].
For `CNC(=O)c1ccc(-c2nc(CN3CCc4ccccc43)c(C)o2)cc1`, the Potency was inconclusive: 17.8 µM [inhibitor, single point].
In the case of `O=C(C1CCCC1)N1CC2(CCN(CC3CC3)CC2)Cc2ccccc21`, the Potency is reported as inconclusive: 17.8 µM [inhibitor, partial curve, poor fit].
In the case of `CNc1ccc(C(=O)NCCCc2c(C)noc2C)cn1`, the “activity, negative = inhibition” value is reported as inactive: 7.12%.
For `O=C(CC1(O)C(=O)N(CCc2ccccc2)c2ccc(Br)cc21)c1ccccc1` (centres undefined), the Potency was inconclusive: 10 µM [inhibitor, single point].
In the case of `O=C(Nc1ccccc1)C1(CCO)CCN(Cc2ccccc2)C1` (centres undefined), the Potency is reported as inconclusive: 5.62 µM [inhibitor, partial curve, poor fit].
In the case of `C[S+](=O)([O-])N1Cc2ccccc2CC2(CCCN(Cc3ccncc3)C2)C1` (centres undefined), the “activity, negative = inhibition” value is reported as inactive: -3.18%.
In the case of `Cc1c(C2=CCN(S(=O)(=O)c3ccc(Cl)cc3)CC2)c2ccccc2n1CC(=O)N1CCCC1`, the Potency is reported as inconclusive: 17.8 µM [inhibitor, single point].
With `COc1ccc(-c2noc([C@@H](C)NC(=O)c3ccc4c(c3)OCO4)c2C(=O)O)cc1` the “activity, negative = inhibition” value was inactive: 0.264% [at 44.1 µM].
In the case of `Cc1ccc(S(=O)(=O)N[C@H]2CC(C)(C)[C@@H]3C[C@@](C)(O)CC[C@]23CCC(=O)NCCc2c[nH]c3ccccc23)cc1`, the “activity, negative = inhibition” value is reported as inactive: -14.6%.
For `O=C(c1ccc(Cn2cncn2)o1)N1CCCCCC1c1nnc(-c2ccccc2)o1` (centres undefined), the “outcome” value was “inactive”.
For `Cc1cc2c(n1-c1ccc(C(=O)NCCc3ccc(Cl)cc3)cc1)CCC(C)C2` (centres undefined), the Potency was inconclusive: 10 µM [inhibitor, single point].
With `O=C1CC(c2ccc(Br)cc2)c2c(c3ccccc3oc2=O)O1` (centres undefined) the “activity, negative = inhibition” value was inactive: -8.86%.
In the case of `Cc1cccc2c1nc1n2[C@@H](CNCc2nc3ccccc3n2C)COC1`, the “activity, negative = inhibition” value is reported as inactive: -18.5% [at 44.1 µM].
For `COc1ccc(-c2cc(C(F)(F)F)n3nc(C(=O)OC(C)C)cc3n2)cc1`, the Potency was inconclusive: 17.8 µM [inhibitor, single point].
For `Cc1cn2nc(C(=O)NCc3ccccc3Cl)cc2c(N2CCCC2)n1`, the Potency was active: 8.91 µM.
With `COc1ccccc1N1CCN(C(=O)c2cc3c(s2)-c2ccccc2OC3)CC1` the “activity, negative = inhibition” value was inactive: 28.5%.
With `Cc1ccccc1CN1CCC(CNC(=O)c2cc3ccc4cccnc4c3[nH]2)CC1` the Potency was active: 10 µM.
In the case of `CC(C)(C)C(=O)NC1CC(=O)N(c2ccc3c(c2)OCCO3)C1` (centres undefined), the “activity, negative = inhibition” value is reported as inactive: 34.9%.
With `COc1ccccc1NC(=O)c1sc2nc(C)c(C(=O)Nc3ccc(Cl)cc3)c(-c3ccc(Br)cc3)c2c1N` the Potency was inconclusive: 15.8 µM [inhibitor, single point].
For `Cc1cc(CN2CCC(Cc3ccc(F)cc3)CC2)n(C)n1`, the Potency was inconclusive: 10 µM [inhibitor, partial curve].
For `CN(C)[C@H]1CCCCN(C(=O)CCc2ccc(-c3ccc(Cl)cc3)[nH]2)C1`, the Potency was inconclusive: 0.355 µM [inhibitor, full curve].
With `COCCn1c(CN(C)Cc2sccc2C)cnc1S(=O)(=O)CC1CCCCC1` the Potency was inconclusive: 17.8 µM [inhibitor, single point].
With `Oc1ccccc1CN1CCC[C@H]1c1nc(-c2ccc(N3CCOCC3)nc2)no1` the Potency was inconclusive: 14.1 µM [inhibitor, partial curve, poor fit].
With `CC(=O)N1CCN(C(=O)c2ccc3c(c2)NC(C)(COc2cccnc2)CO3)CC1` (centres undefined) the “activity, negative = inhibition” value was inactive: -13.3% [at 44.1 µM].
For `O=C1CCN(Cc2cccnc2)CCCC(C(=O)N2CCN(Cc3ccccc3F)CC2)CCN1` (centres undefined), the Potency was inconclusive: 5.01 µM [inhibitor, single point].
With `COc1ccnc(-c2nnc3ccc(N(C)c4ccccc4)nn23)c1` the Potency was inconclusive: 5.62 µM [inhibitor, full curve, poor fit].
In the case of `COCCOc1ccc2c(n1)CCN(C(=O)Cc1ccc(C)cc1)C2`, the Potency is reported as inconclusive: 10 µM [inhibitor, partial curve].
In the case of `O=C(c1ccc(Cl)cc1)N(CC1CCOC1)C1CC1` (centres undefined), the outcome is reported as “inactive [at 5.79 µM]”.
For `COCc1cc(=O)n(CC(=O)Nc2ccc(C)cc2Cl)c(N2CCOCC2)n1`, the “outcome” value was “inactive”.
With `COc1ccc(CCn2c(=O)c3cccnc3n(CC(=O)Nc3ccc(C)c(F)c3)c2=O)cc1OC` the Potency was inconclusive: 11.2 µM [inhibitor, single point].
In the case of `CC(C)N1C(=O)CO[C@H]2CN(C(=O)c3cccnc3)C[C@H]21`, the “activity, negative = inhibition” value is reported as inactive: -8.15% [at 44.1 µM].
With `CCOc1ccc(NC(=O)c2c(NCc3cccnc3)sc3c2CCCC3)cc1` the Potency was active: 12.6 µM.
In the case of `CCCCNC(=O)c1nnn2cc(-c3ccc(Cl)cc3)[nH]c(=O)c12`, the Potency is reported as inconclusive: 0.316 µM [inhibitor, partial curve, poor fit].
With `CCOC(=O)c1ccc(CN(Cc2ccc(F)cc2)S(=O)(=O)c2ccc(F)c(C(=O)Nc3ccc(Cl)cc3F)c2)cc1` the “activity, negative = inhibition” value was inactive: -25.3%.
For `O=C(Nc1ccc(-c2nnc3n2CCCC3)cc1)c1ccccc1`, the Potency was inconclusive: 17.8 µM [inhibitor, single point].
With `O=C(Nc1ccc2c(N3CCCC3)ncnc2c1)c1ccc(Cl)cc1` the Potency was active: 2.82 µM.
With `O=C(CN1CCn2nc(C(O)C3CC3)cc2C1)N1CCc2ccccc21` (centres undefined) the “activity, negative = inhibition” value was inactive: -28.3%.
